This is one part of the list. At the low end of the ranking the order means little. Measured with an extract: partners may take part in the binding.

The target in this assay is T1, HNF4alpha8 (COS-7 nuclear extract) (UniProt P41235-5).
T1 sequence: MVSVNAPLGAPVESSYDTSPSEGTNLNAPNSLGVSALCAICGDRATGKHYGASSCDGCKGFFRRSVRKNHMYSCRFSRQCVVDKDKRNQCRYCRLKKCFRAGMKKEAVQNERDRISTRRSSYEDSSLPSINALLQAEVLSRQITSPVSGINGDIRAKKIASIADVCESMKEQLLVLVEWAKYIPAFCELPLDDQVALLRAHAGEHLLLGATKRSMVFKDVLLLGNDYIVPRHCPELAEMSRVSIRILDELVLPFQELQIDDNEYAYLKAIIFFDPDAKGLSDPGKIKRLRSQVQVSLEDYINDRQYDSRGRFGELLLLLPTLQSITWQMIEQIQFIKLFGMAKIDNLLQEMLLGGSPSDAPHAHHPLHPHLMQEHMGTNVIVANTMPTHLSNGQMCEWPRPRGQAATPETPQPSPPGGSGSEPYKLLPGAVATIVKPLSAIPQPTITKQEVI
The assay can be described thus: protein-binding microarray. The settings on record: COS-7 nuclear extract on double-stranded Agilent 4x180k PBM; binding buffer, salt, pH and temperature not given; high values mean tight binding; double strand, one strand shown; sequences stand for … in …GCCTAGGGAGATTAGAGTATCGGTCGA
As to TCCAGTTGTATCGCCTCCACCTGCACCATT, the binding signal (log2 normalized intensity) is -0.213.
AAACAAAATGCATTTCCTTATTCTTAACAA: the binding signal (log2 normalized intensity) was -1.34.
Then TGTGCTCCTGTAGAATGACCCCCTGGGCTC, with 4.76.
As to AGTAGGGCGTCTCTTAGTATTACCATGTCC, the binding signal (log2 normalized intensity) was 0.416.
As for AGGAATGCAGCCCTGCCACTCTTTTTTAGA, the binding signal (log2 normalized intensity) was -0.981.
For TGTTTATCAGAGCAAAGTTCAATTTCCAAC, the binding signal (log2 normalized intensity) was 4.31.
As to AGGCAAACTTTATCAAGACTGCAGCCAGGG, the binding signal (log2 normalized intensity) was -1.24.
ATAAACTGGAAAGGGCTTCAGAGTCGATAG: the binding signal (log2 normalized intensity) was -1.32.
Then TTGGGGCTAATGTCTCTCTGGCCGGAGGGG, with -0.523; and TGTGATTTGAAATTTGTCCTGGTCACACCA, with 1.28.
AGGGGGCCTCCTGCCCCAGGAGCAGGATAG: the binding signal (log2 normalized intensity) is -1.43.
Then TTACAAAGTGGTTGTAGCAGTTCACACTCC, with 0.28.
Consider ACAGGCTCAGCAAAGTCAGGTCAGTAGCCC, for which the binding signal (log2 normalized intensity) was -1.41.
Regarding AGGGAATCCTGCATTATCAGGCAAGGGTGG, the binding signal (log2 normalized intensity) was -0.804.
Turning to CTTGCCAAGCCTAGTTTTGATTATCACTAC, the binding signal (log2 normalized intensity) was -1.29.
Then AGGAATTCAACCAATGTGGAGCTGCTGAAC, with -1.11.
Regarding ATGTTAGGCTGGAAAACTGGGCTGTTATTT, the binding signal (log2 normalized intensity) was determined as 0.577.
For CTTCGAGCCTGTGGTTTCTCTTTGTATACA, the binding signal (log2 normalized intensity) turned out to be 0.701.
Consider TACTGTACTTTGCTCTCAGCACACTCTGGT, for which the binding signal (log2 normalized intensity) was 2.41.
For GCTTATCGTCCCTTCCCTCTGTCTTCAAAA, the binding signal (log2 normalized intensity) was 1.04.
With CCCTGACCAAGGGTCATGCTGGTCTCCTTG, the binding signal (log2 normalized intensity) worked out at 2.46.
Take ACTTTGCCCCCAAGAAAAGGTTCCTATGTA: the binding signal (log2 normalized intensity) was 2.18.
As to AAACATTCCTCCCTCCCTCTTCCCTCATAT, the binding signal (log2 normalized intensity) came to 2.52.
As to GGTTGCTGTTATCTTCATTTATAGATAAGC, the binding signal (log2 normalized intensity) was -0.228.
Turning to ACATCTCCCACTGTGGACTCTGAGCCTCCT, the binding signal (log2 normalized intensity) is 4.54.
Regarding AGCATCGCTGGACTCTGCTCCTAAGGCAGG, the binding signal (log2 normalized intensity) was 3.26.
Regarding GATCGAAAGGACATTGTCCATCACCTGGCT, the binding signal (log2 normalized intensity) was -1.26.
The figure for GGTCAGACATGGCTGTATGTGACATGGACA is 1.57; for GGTGGGGCCGGGGTGGTGGTTACCGGCAGA it is -0.576.
Turning to TCGGCTGCCTCTCCAAACAAATTGAGAAAG, the binding signal (log2 normalized intensity) is -1.09.
For the sequence CCAAAGCTACACAGATAAGCCATTCGTAAC, the binding signal (log2 normalized intensity) was -1.43.
Turning to TGAATTTGGTACCTCCCCCCACACCATTAG, the binding signal (log2 normalized intensity) was 4.99.
Take TTCTGGAGGTGAGAAGCCTGAAATGAGTTT: the binding signal (log2 normalized intensity) is -1.12.
Regarding TAGAGGGTAAACAGCCTCTAAGCACGGCCA, the binding signal (log2 normalized intensity) was -1.24.
ATAAACAGAAGCAATCACAAGGAATGCCCT: the binding signal (log2 normalized intensity) was 1.32.
The figure for CTTTGTTTACTTAACCTTTGATCATATGCA is 5.75.
Turning to AAGCATGTGATCTACTCCCTGTTCTTACAC, the binding signal (log2 normalized intensity) is 0.168.
For the sequence TTGGCAATTACCCAACAGACTTTCCCCCTA, the binding signal (log2 normalized intensity) was found to be 4.13.
Consider TATCTCGTCACCTTTATCGAACCTATTGTT, for which the binding signal (log2 normalized intensity) worked out at 1.16.
Take TCACACACACACACACACACACCCCACACA: the binding signal (log2 normalized intensity) stood at 2.2.

Values taken from article PMC10726135.
